Data on 146 sequences can be found in the BET-seq Pho4 binding data (Le et al. 2018).

This is one part of the list. These are noisy estimates, calculated here from bound and input reads.

The target in this assay is T1, Pho4 (S. cerevisiae) (UniProt P07270).
T1 sequence: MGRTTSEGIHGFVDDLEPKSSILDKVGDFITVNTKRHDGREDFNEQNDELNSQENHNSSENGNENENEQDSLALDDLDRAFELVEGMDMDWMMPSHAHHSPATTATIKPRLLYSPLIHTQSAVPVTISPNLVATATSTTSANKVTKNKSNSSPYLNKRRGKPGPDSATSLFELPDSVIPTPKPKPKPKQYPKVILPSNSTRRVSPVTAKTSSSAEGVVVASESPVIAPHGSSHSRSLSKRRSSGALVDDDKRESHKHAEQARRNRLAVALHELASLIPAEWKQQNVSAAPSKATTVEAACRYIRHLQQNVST
As to the kind of experiment: relative binding free energy (BET-seq); higher = weaker binding. The note with it: reference: library average.
Regarding AGTGCCACGTGGAGGC, the “relative binding free energy” value is -0.08 kcal/mol. To TGGATCACGTGAAGGA belongs 0.4 kcal/mol. As for TATTTCACGTGGAGGT, the “relative binding free energy” value was found to be 0.22 kcal/mol.

Regarding TTGTGCACGTGGGTCT, the “relative binding free energy” value was -0.29 kcal/mol.

As to TTGGCCACGTGCAGTT, the “relative binding free energy” value is -0.03 kcal/mol. For ATTAGCACGTGTCTGG, the “relative binding free energy” value was -0.13 kcal/mol. In the case of GGAGTCACGTGTGGTC, the “relative binding free energy” value was 0.16 kcal/mol. Consider TAGAGCACGTGCGTTG, for which the “relative binding free energy” value is -0.13 kcal/mol. As for AGGATCACGTGTGGGA, the “relative binding free energy” value worked out at 0.35 kcal/mol. GTGTACACGTGTTCGT: the “relative binding free energy” value was found to be 0.14 kcal/mol. Consider GTGGACACGTGGTTAA, for which the “relative binding free energy” value stood at 0.07 kcal/mol.

Turning to CGGGTCACGTGGCTCG, the “relative binding free energy” value worked out at 0.06 kcal/mol. As to TGGGCCACGTGCTTGG, the “relative binding free energy” value is -0.18 kcal/mol. In the case of TTCGGCACGTGGGTAG, the “relative binding free energy” value is -0.07 kcal/mol.

As to AGTAGCACGTGTTCGT, the “relative binding free energy” value was -0.04 kcal/mol. As for TGAAACACGTGTGTAA, the “relative binding free energy” value came to 0.08 kcal/mol. The value for GTTCACACGTGCGGGT was 0.09 kcal/mol; that for GGGGACACGTGTGAGT was 0.19 kcal/mol. Consider TTACGCACGTGAGTGG, for which the “relative binding free energy” value stood at 0.14 kcal/mol. Consider GTGTACACGTGCATGG, for which the “relative binding free energy” value is -0.07 kcal/mol. To TGGAGCACGTGGTATA belongs -0.07 kcal/mol; to TGTTGCACGTGATGGA, 0.26 kcal/mol. For the sequence TTGCGCACGTGGATGT, the “relative binding free energy” value is -0.04 kcal/mol. For the sequence TATATCACGTGGTACG, the “relative binding free energy” value was determined as 0.1 kcal/mol.

Take AGAATCACGTGGGAGG: the “relative binding free energy” value amounted to 0.03 kcal/mol. For GCGGTCACGTGCGGTA, the “relative binding free energy” value worked out at 0.17 kcal/mol. Take AGTCTCACGTGGATTG: the “relative binding free energy” value came out at 0.11 kcal/mol. As for ACTTTCACGTGGGGTT, the “relative binding free energy” value was 0.02 kcal/mol.

On to AAGTTCACGTGTTTCA, for which the “relative binding free energy” value came out at 0.42 kcal/mol. For ATGCGCACGTGAGGAA, the “relative binding free energy” value came to 0.19 kcal/mol. In the case of CATGTCACGTGTGCTG, the “relative binding free energy” value is -0.02 kcal/mol. With TTCGTCACGTGGGAAG, the “relative binding free energy” value is -0.08 kcal/mol.

TTTCGCACGTGGAGAA: the “relative binding free energy” value was 0.16 kcal/mol. In the case of AGGAACACGTGTTGAG, the “relative binding free energy” value was 0.02 kcal/mol. Take GTGAGCACGTGGGCCG: the “relative binding free energy” value was -0.14 kcal/mol.

As to TGAGTCACGTGAGACG, the “relative binding free energy” value came to 0.27 kcal/mol. In the case of GTTTTCACGTGAGAGG, the “relative binding free energy” value is 0.46 kcal/mol. Consider TAGAGCACGTGTATCG, for which the “relative binding free energy” value is -0.07 kcal/mol. With GTATTCACGTGTAGTT, the “relative binding free energy” value turned out to be 0.25 kcal/mol. The value for TTTATCACGTGAGGTA was 0.26 kcal/mol. On to AGACTCACGTGTAGGG, for which the “relative binding free energy” value was found to be 0.15 kcal/mol.

Regarding AGGTTCACGTGACCGG, the “relative binding free energy” value was found to be 0.46 kcal/mol. Turning to TGGTGCACGTGTTTGC, the “relative binding free energy” value is -0.06 kcal/mol. The value for GGTTGCACGTGGGAGG was -0.1 kcal/mol. With TAAAGCACGTGGATGG, the “relative binding free energy” value was 0.05 kcal/mol. As for AGTTCCACGTGTTGAT, the “relative binding free energy” value stood at 0.08 kcal/mol.

In the case of GGTAGCACGTGGTAGC, the “relative binding free energy” value was -0.05 kcal/mol.

Take GTTGTCACGTGCGTTA: the “relative binding free energy” value was 0.02 kcal/mol.

GTAGGCACGTGTCGTC: the “relative binding free energy” value was 0.02 kcal/mol.

For GGAAGCACGTGAGCGT, the “relative binding free energy” value was found to be 0.03 kcal/mol. Turning to TGGATCACGTGCGTAT, the “relative binding free energy” value was found to be 0.15 kcal/mol.

Consider TGTCTCACGTGCGAGG, for which the “relative binding free energy” value was 0.15 kcal/mol. As for TCATTCACGTGGTGCG, the “relative binding free energy” value came out at 0.4 kcal/mol.

Consider CGGGGCACGTGGATGC, for which the “relative binding free energy” value is -0.13 kcal/mol. On to TTGTCCACGTGGGGCA, for which the “relative binding free energy” value was -0.19 kcal/mol. With TTAGTCACGTGGATGA, the “relative binding free energy” value worked out at 0.16 kcal/mol.

As to GGTCGCACGTGGGTTT, the “relative binding free energy” value was -0.02 kcal/mol. For GTTTTCACGTGGGGAG, the “relative binding free energy” value amounted to 0.21 kcal/mol. Turning to GTTTTCACGTGGAGCT, the “relative binding free energy” value was found to be 0.29 kcal/mol. To TTATGCACGTGATATG belongs -0.15 kcal/mol. As for TCAAGCACGTGTATGG, the “relative binding free energy” value is -0.06 kcal/mol. Turning to GTTTGCACGTGGTCGG, the “relative binding free energy” value stood at 0.07 kcal/mol. Turning to TAGGCCACGTGTTATT, the “relative binding free energy” value is -0.01 kcal/mol. As for GGGATCACGTGAACGG, the “relative binding free energy” value stood at 0.39 kcal/mol.

Consider GGACACACGTGAGGGT, for which the “relative binding free energy” value is 0.19 kcal/mol.

With AGGAGCACGTGAGAGT, the “relative binding free energy” value amounted to 0.32 kcal/mol.

On to CCTATCACGTGGGGTG, for which the “relative binding free energy” value was 0.05 kcal/mol. Regarding ACTAACACGTGTGGTG, the “relative binding free energy” value was found to be 0 kcal/mol.

On to TGAATCACGTGGAAGG, for which the “relative binding free energy” value worked out at 0.04 kcal/mol. For GTGAGCACGTGCGAGG, the “relative binding free energy” value was -0.07 kcal/mol. Regarding TTTGGCACGTGCGAAG, the “relative binding free energy” value was -0.01 kcal/mol. As to AAGAGCACGTGTGGCG, the “relative binding free energy” value amounted to 0 kcal/mol. Turning to ATCTACACGTGAAGGT, the “relative binding free energy” value is 0.32 kcal/mol. As to TGTTTCACGTGTGGGA, the “relative binding free energy” value is 0.27 kcal/mol.

TCTGGCACGTGTTATT: the “relative binding free energy” value was -0.06 kcal/mol.

With GTGGGCACGTGGCGCG, the “relative binding free energy” value was -0.13 kcal/mol. On to TTGTACACGTGTGAAG, for which the “relative binding free energy” value was 0.11 kcal/mol.

As to GACGTCACGTGGCAGG, the “relative binding free energy” value turned out to be 0.13 kcal/mol. Consider AGGTACACGTGGTCAG, for which the “relative binding free energy” value is -0.18 kcal/mol.

Turning to TTGATCACGTGTTTGC, the “relative binding free energy” value worked out at 0.15 kcal/mol. Consider TAGTCCACGTGTGGGC, for which the “relative binding free energy” value is 0.12 kcal/mol. To GGTGGCACGTGATGTC belongs 0.15 kcal/mol; to TGAAGCACGTGTGGCT, 0.04 kcal/mol. Consider AAATACACGTGATGGT, for which the “relative binding free energy” value was found to be 0.12 kcal/mol. With TCGGGCACGTGTGTGC, the “relative binding free energy” value was -0.01 kcal/mol.

Take TGAATCACGTGTAGTC: the “relative binding free energy” value is 0.42 kcal/mol. With AAGGCCACGTGTAGTG, the “relative binding free energy” value was 0.02 kcal/mol. With TGGGGCACGTGGGGGA, the “relative binding free energy” value is -0.2 kcal/mol. Take ATGAACACGTGGTGAT: the “relative binding free energy” value was -0.09 kcal/mol. In the case of GTGTTCACGTGGAACG, the “relative binding free energy” value came to 0.29 kcal/mol. Turning to AAGCTCACGTGTGAGT, the “relative binding free energy” value was 0.3 kcal/mol. As to TGGGGCACGTGCGAAT, the “relative binding free energy” value is -0.09 kcal/mol.

As to AATATCACGTGATGGT, the “relative binding free energy” value worked out at 0.2 kcal/mol. The value for TTAGTCACGTGAGTCG was 0.2 kcal/mol. In the case of CTATTCACGTGGGGGT, the “relative binding free energy” value is 0.11 kcal/mol. The value for TTTGGCACGTGGGAGG was -0.12 kcal/mol. Consider TCGGTCACGTGGTTTC, for which the “relative binding free energy” value worked out at 0.08 kcal/mol. As for TTTGTCACGTGTGCGA, the “relative binding free energy” value is 0.07 kcal/mol. To AGATTCACGTGATAAT belongs 0.38 kcal/mol. Regarding TCGTGCACGTGTATGG, the “relative binding free energy” value was -0.11 kcal/mol. Take CAGTGCACGTGAAGGT: the “relative binding free energy” value amounted to 0.19 kcal/mol.

For the sequence ATTGGCACGTGGTGGT, the “relative binding free energy” value is -0.11 kcal/mol.

Consider GTGAGCACGTGCTGGG, for which the “relative binding free energy” value is -0.14 kcal/mol. For the sequence ATGAGCACGTGAGCGT, the “relative binding free energy” value was -0.03 kcal/mol. GCATACACGTGGTGTG: the “relative binding free energy” value is 0 kcal/mol. To GCAGTCACGTGATGTT belongs 0.19 kcal/mol; to TTTCGCACGTGATTTG, 0.13 kcal/mol.

For ATCAGCACGTGTATGT, the “relative binding free energy” value is 0 kcal/mol. Take AGGCACACGTGTGGGA: the “relative binding free energy” value stood at 0 kcal/mol. With TTTGTCACGTGCAGTG, the “relative binding free energy” value was -0.05 kcal/mol.

Regarding TTTTTCACGTGTGACG, the “relative binding free energy” value came out at 0.38 kcal/mol. The value for ATGCGCACGTGGTACG was -0.16 kcal/mol; that for TAAGGCACGTGTGGCA was -0.2 kcal/mol; that for GAGGTCACGTGCAGGT was 0.2 kcal/mol. For the sequence CGTGTCACGTGCTAGG, the “relative binding free energy” value came to 0.05 kcal/mol. The value for GGGTGCACGTGAAAAT was 0.29 kcal/mol; that for TTATCCACGTGTAGGA was 0.09 kcal/mol; that for AGTTTCACGTGTCGTT was 0.15 kcal/mol. On to AGAGTCACGTGTGCGG, for which the “relative binding free energy” value was -0.01 kcal/mol.

Regarding AGGCTCACGTGGGAGC, the “relative binding free energy” value is 0.22 kcal/mol. In the case of TTGCACACGTGGTTTA, the “relative binding free energy” value is -0.06 kcal/mol. On to TCGAGCACGTGTGGGC, for which the “relative binding free energy” value is -0.04 kcal/mol.

For TGGGACACGTGATGGG, the “relative binding free energy” value stood at 0.23 kcal/mol.

In the case of ATAGGCACGTGGGTGG, the “relative binding free energy” value is -0.27 kcal/mol.

On to TCTTTCACGTGGAGTA, for which the “relative binding free energy” value amounted to 0.43 kcal/mol. Turning to TGGGGCACGTGAAGCT, the “relative binding free energy” value is 0.11 kcal/mol. For the sequence TATTACACGTGTGTGT, the “relative binding free energy” value was determined as 0.09 kcal/mol. To CTTTTCACGTGTATAT belongs 0.21 kcal/mol; to TAAGCCACGTGGTTTT, -0.17 kcal/mol. AGGTACACGTGTGTTG: the “relative binding free energy” value stood at 0.08 kcal/mol.

Take TTTGGCACGTGCTGGG: the “relative binding free energy” value was -0.06 kcal/mol. GATTTCACGTGCGGGT: the “relative binding free energy” value was determined as 0.34 kcal/mol. With ACATGCACGTGTGGGG, the “relative binding free energy” value was -0.14 kcal/mol. The value for AGGGGCACGTGACGTG was -0.01 kcal/mol. CTATACACGTGAGGTA: the “relative binding free energy” value amounted to 0.21 kcal/mol.

For GGGCGCACGTGTTGCG, the “relative binding free energy” value was -0.1 kcal/mol. To GTGGGCACGTGGGTGT belongs -0.12 kcal/mol; to GTTGCCACGTGAGTTT, 0.21 kcal/mol. Take AGTGACACGTGGTGGC: the “relative binding free energy” value is -0.06 kcal/mol. TAGTGCACGTGGTCTA: the “relative binding free energy” value is -0.17 kcal/mol. To AAGAACACGTGTTGGA belongs 0.14 kcal/mol. To TGCTGCACGTGTGCTT belongs -0.04 kcal/mol; to GTTGTCACGTGTACTT, 0.26 kcal/mol. In the case of TTATGCACGTGTCTGA, the “relative binding free energy” value stood at 0.04 kcal/mol. For TAAGTCACGTGGTTTT, the “relative binding free energy” value was determined as 0.14 kcal/mol. For CTTGGCACGTGGGCTA, the “relative binding free energy” value is -0.19 kcal/mol.
